Measured values taken from publication PMC4336329 (PLoS ONE, 2015).
Out of some 310,000 compounds screened, about 14,000 (4.5%) showed an effect of 50% or more. The effect is printed as a negative number. This is one part of the list.

Target: human ether-à-go-go-related gene (hERG) potassium channel (human, UniProt Q12809)
Assay: primary screen, population patch clamp on CHO cells stably expressing hERG
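Also: peak tail current of the secondary pulse compared with the same well before compound.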

Sequence of human ether-à-go-go-related gene (hERG) potassium channel (Q12809 whole entry, looked up): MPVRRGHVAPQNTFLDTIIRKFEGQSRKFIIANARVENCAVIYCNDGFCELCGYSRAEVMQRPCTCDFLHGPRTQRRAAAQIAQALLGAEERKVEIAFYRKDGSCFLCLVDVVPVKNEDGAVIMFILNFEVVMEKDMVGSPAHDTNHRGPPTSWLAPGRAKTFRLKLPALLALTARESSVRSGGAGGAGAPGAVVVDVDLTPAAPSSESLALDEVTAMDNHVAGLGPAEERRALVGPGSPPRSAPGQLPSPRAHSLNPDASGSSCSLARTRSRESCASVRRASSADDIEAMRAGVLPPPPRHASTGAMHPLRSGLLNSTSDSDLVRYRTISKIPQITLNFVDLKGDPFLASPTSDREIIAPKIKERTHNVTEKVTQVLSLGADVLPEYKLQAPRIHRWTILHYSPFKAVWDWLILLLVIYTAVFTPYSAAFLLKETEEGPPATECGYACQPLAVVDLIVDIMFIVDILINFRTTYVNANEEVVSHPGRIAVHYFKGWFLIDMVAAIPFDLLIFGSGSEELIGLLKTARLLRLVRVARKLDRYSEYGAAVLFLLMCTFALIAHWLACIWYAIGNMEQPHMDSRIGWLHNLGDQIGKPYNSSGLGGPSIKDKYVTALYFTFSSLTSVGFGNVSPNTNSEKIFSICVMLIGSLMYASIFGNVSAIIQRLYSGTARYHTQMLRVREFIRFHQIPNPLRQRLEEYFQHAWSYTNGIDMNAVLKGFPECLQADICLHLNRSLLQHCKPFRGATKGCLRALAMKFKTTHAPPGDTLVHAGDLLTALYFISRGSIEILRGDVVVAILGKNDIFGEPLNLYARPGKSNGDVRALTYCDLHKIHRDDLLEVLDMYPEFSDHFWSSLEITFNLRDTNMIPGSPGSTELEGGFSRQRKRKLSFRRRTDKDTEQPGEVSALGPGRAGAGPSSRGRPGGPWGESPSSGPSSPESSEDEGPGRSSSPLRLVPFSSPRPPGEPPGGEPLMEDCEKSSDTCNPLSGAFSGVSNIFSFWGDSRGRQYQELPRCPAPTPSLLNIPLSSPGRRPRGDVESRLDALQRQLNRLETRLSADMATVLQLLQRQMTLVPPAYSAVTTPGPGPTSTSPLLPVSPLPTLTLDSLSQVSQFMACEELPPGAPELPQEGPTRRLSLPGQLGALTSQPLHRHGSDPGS

Structure (SMILES)	hERG current change (%, negative = inhibition) at 10uM [%]
CCC(C)(C#CCN1CCCCC1)OC(C)=O (centres unmarked)	10.7
Cn1ccnc1C(=O)c1cc(=O)c2ccccc2o1	8.14
CCCC(C)c1nnc(NC(=O)C2CCCO2)s1 (centres unmarked)	3.06
Cc1nc2ccc(S(=O)(=O)Nc3cccc(-c4nc5cccnc5s4)c3)cc2s1	14.8
Cc1ccc(-n2ncc(Cl)c2C(=O)NCc2ccccc2)cc1	12.1
Cc1ccc(CNC(=O)CN2C(=O)NC(C)(c3ccc(Cl)cc3)C2=O)cc1 (centres unmarked)	-6.93
O=C(COC(=O)c1ccc(Cl)c(S(=O)(=O)N2CCCC2)c1)NC1CCCCC1	0.159
CN(Cc1ccc(F)cc1)C(=O)COc1ccccc1-c1ccccc1	-1.36
O=C(NNC(=O)c1cc2cc(OC(F)(F)F)ccc2[nH]1)c1cccc(C(F)(F)F)c1	9
COc1cccc(C(=O)Nc2nnc(Cc3ccc(OC)c(OC)c3)s2)c1	22.3
COc1cc(C2Nc3ccc4ncccc4c3C3=C2C(=O)CC(C)(C)C3)cc(OC)c1O (centres unmarked)	3.48
Cc1cc(N2CCN(c3ccccc3)CC2)nc2ccccc12	3.04
Cc1sc2ncnc(NCc3cccnc3)c2c1C	-55
CC1(C)CC(=O)C2=C(C1)OC(N)=C(C#N)C2c1cccc(OC(=O)c2ccco2)c1 (centres unmarked)	-4.09
O=c1[nH]c(CSc2ncccn2)nc2c1cnn2-c1ccccc1	-1.06
C/C(N)=C(/C#N)C(=O)CSc1nnnn1-c1ccc(C)cc1C	-13.9
COc1cccc(NC(=O)NCCc2ccc(Cl)cc2)c1	9.47
Cc1ccnc(NC(=O)CCCc2ccccc2)c1	13
COc1ccc2c(c1OC)C(=O)OC2C1c2c(cc3c(c2OC)OCO3)CCN1C (centres unmarked)	-1.42
O=C(Nc1cccc(C(F)(F)F)c1)c1cc(-c2ccc(F)cc2)on1	-2.5
Cc1ccc2c(c1)NC(=O)C(CC(=O)NCCCN1CCN(c3cc(C)ccc3C)CC1)O2 (centres unmarked)	-61.4
CCCn1nc(Oc2nc(NCC)nc(NC(C)C)n2)ccc1=O	1.01

Structure (SMILES)	hERG current change (%, negative = inhibition) at 10uM [%]
CN(C)c1ccc(CNCCC2(O)CCOC(C)(C)C2)cc1 (centres unmarked)	-46.5
Cc1ccc(CNC(=O)Cn2nnc(C(=O)Nc3ccc(Br)cc3)c2N)cc1	15.8
O=C(NS(=O)(=O)Nc1ccccn1)c1c[nH]c2ccccc12	15.4
CCC(=O)N(Cc1cc2cc(OC)ccc2[nH]c1=O)c1ccc(C)cc1	0.841
COc1cc(NC(=O)CSc2nc(C)cc(C)n2)cc(OC)c1OC	0.515
CCOC(=O)c1c(N)sc2c1CCSC2	0.947
COc1cc(-c2nnc(-c3ccc(N4CCOCC4)cc3)o2)cc(OC)c1OC	-34
COc1ccc(CC(=O)NNC(=O)c2ccc(SCc3cc(F)ccc3F)c([N+](=O)[O-])c2)cc1	-14.2
CCOC(=O)c1nc(N)c(=O)n(-c2ccccc2)n1	0.155
O=C(O)C1C2C=CC(C2)C1C(=O)NCc1ccccc1F (centres unmarked)	11.8
Cc1cc(NC(=O)CN2C(=O)NC(CCc3ccccc3)C2=O)no1 (centres unmarked)	9.36
O=C(CN1CCCCC1)Nc1ccccc1	-1.04
COc1ccc(C(=O)CNc2ccccc2Br)cc1	18.8
Cc1cc(NC(=O)C(C)Sc2nnc(NCc3ccco3)s2)no1 (centres unmarked)	-6.08
Cc1nn(-c2ccccc2)c(Cl)c1C(=O)NCC1CCCO1 (centres unmarked)	1.75
C/C(=N/NC(=O)c1nnn(-c2nonc2N)c1COc1ccccc1)c1ccc(O)cc1	19.4
C=CCNC(=S)NCc1ccc(CNC(=S)NCC=C)cc1	19.7
CCN1CCN(C(=O)C(=O)c2c(C)[nH]c3ccccc23)CC1	-5.06
CN(C)c1ccc(C(CNC(=O)c2cccs2)N(C)C)cc1 (centres unmarked)	3.33
CCCC(=O)NC(NC1CCS(=O)(=O)C1)C(Cl)(Cl)Cl (centres unmarked)	4.08
Cc1cccc(N(C(=O)c2snc(C(N)=O)c2N)C(C)C(=O)NCC2CCCO2)c1 (centres unmarked)	27.3
CN(Cc1ccccc1)C(=O)c1nc[nH]c1C(=O)N1CCN(c2ccccc2)CC1	2.41
